Reference: a collection of fitness landscapes (doi:10.1126/science.1257360)
The other results are listed elsewhere or left out.

B1: PhoQ; a variant is named by its letters at X, in order, P23837 (parent)
chain: MKKLLRLFFPLSLRVRFLLATAAVVLVLSLAYGMVALIGYSVSFDKTTFRLLRGESNLFYTLAKWENNKLHVELPENIDKQSPTMTLIYDENGQLLWAQRDVPWLMKMIQPDWLKSNGFHEIEADVNDTSLLLSGDHSIQQQLQEVREDDDDAEMTHSVAVNVYPATSRMPKLTIVVVDTIPVELKSSYMVWSWFIYVLSANLLLVIPLLWVAAWWSLRPIEALAKEVRELEEHNRELLNPATTRELTSLVRNLNRLLKSERERYDKYRTTLTDLTHSLKTPLXXLQXXLRSLRSEKMSVSDAEPVMLEQISRISQQIGYYLHRASMRGGTLLSRELHPVAPLLDNLTSALNKVYQRKGVNISLDISPEISFVGEQNDFVEVMGNVLDNACKYCLEFVEISARQTDEHLYIVVEDDGPGIPLSKREVIFDRGQRVDTLRPGQGVGLAVAREITEQYEGKIVAGESMLGGARMEVIFGRQHSAPKDE

Variants of: B1
Experiment: enrichment ratio after two sorts for PhoP signalling (ratio (wild type AVST 3.29)); higher = more functional
Settings: with PhoP (E. coli)

Row | Variant | enrichment ratio
1 | FNNG | ≤ 0.25
2 | IYCI | ≤ 0.25
3 | QWAF | ≤ 0.25
4 | LTNN | ≤ 0.25
5 | AGQK | ≤ 0.25
6 | IANL | ≤ 0.25
7 | SPYL | ≤ 0.25
8 | QDHL | ≤ 0.25
9 | IFCP | ≤ 0.25
10 | TSPR | ≤ 0.25
11 | ERPC | ≤ 0.25
12 | QRYA | ≤ 0.25
13 | SCKY | ≤ 0.25
14 | AFMN | ≤ 0.25
15 | HQSV | ≤ 0.25
16 | TIDK | ≤ 0.25
17 | IATA | ≤ 0.25
18 | KPTC | ≤ 0.25
19 | HLDN | ≤ 0.25
20 | VNHE | ≤ 0.25
21 | YFCD | ≤ 0.25
22 | LGVV | ≤ 0.25
23 | GFEP | ≤ 0.25
24 | PMPN | ≤ 0.25
25 | TINE | ≤ 0.25
26 | GFHD | ≤ 0.25

Row | Variant | enrichment ratio
27 | LIYY | 0.905
28 | IHMA | ≤ 0.25
29 | RYVK | ≤ 0.25
30 | DICC | ≤ 0.25
31 | QVSR | ≤ 0.25
32 | FFFE | ≤ 0.25
33 | YHAP | ≤ 0.25
34 | LIKF | ≤ 0.25
35 | EKLS | ≤ 0.25
36 | GCAN | ≤ 0.25
37 | NYMI | ≤ 0.25
38 | IITV | ≤ 0.25
39 | NRKG | ≤ 0.25
40 | YDRQ | ≤ 0.25
41 | KTRY | ≤ 0.25
42 | LNAN | ≤ 0.25
43 | IEFR | ≤ 0.25
44 | VWGT | ≤ 0.25
45 | DYRG | ≤ 0.25
46 | FKYY | ≤ 0.25
47 | DDGD | ≤ 0.25
48 | FQSF | 0.597
49 | PRME | ≤ 0.25
50 | CNIT | ≤ 0.25
51 | ASDH | ≤ 0.25
52 | FHFL | ≤ 0.25

Row | Variant | enrichment ratio
53 | FESV | ≤ 0.25
54 | KRGA | ≤ 0.25
55 | GHQY | ≤ 0.25
56 | TITQ | 12.5
57 | NYRK | ≤ 0.25
58 | HYCQ | ≤ 0.25
59 | LGMK | ≤ 0.25
60 | NGDF | ≤ 0.25
61 | PAIQ | ≤ 0.25
62 | IGAV | ≤ 0.25
63 | LADT | ≤ 0.25
64 | GNNK | ≤ 0.25
65 | EPPC | ≤ 0.25
66 | KGYR | ≤ 0.25
67 | WSFF | ≤ 0.25
68 | YMPN | ≤ 0.25
69 | PFSN | ≤ 0.25
70 | LLNR | ≤ 0.25
71 | LRVT | ≤ 0.25
72 | LYHK | ≤ 0.25
73 | HVMV | ≤ 0.25
74 | VFFY | ≤ 0.25
75 | LKWF | ≤ 0.25
76 | GYRV | ≤ 0.25
77 | DPAR | ≤ 0.25
78 | PCAN | ≤ 0.25

Row | Variant | enrichment ratio
79 | ASHT | ≤ 0.25
80 | MLPA | ≤ 0.25
81 | MCDE | ≤ 0.25
82 | AMSL | 7.49
83 | HSIH | ≤ 0.25
84 | SPGT | ≤ 0.25
85 | PFCY | ≤ 0.25
86 | FLGI | ≤ 0.25
87 | RAMK | ≤ 0.25
88 | EKMY | ≤ 0.25
89 | MDFN | ≤ 0.25
90 | NWMT | ≤ 0.25
91 | VHCD | ≤ 0.25
92 | DLDH | ≤ 0.25
93 | WCWT | ≤ 0.25
94 | EGIF | ≤ 0.25
95 | ETST | ≤ 0.25
96 | YWGC | ≤ 0.25
97 | RTFI | ≤ 0.25
98 | TPGM | ≤ 0.25
99 | PTYC | ≤ 0.25
100 | FFMG | ≤ 0.25
101 | YTKT | ≤ 0.25
102 | TIMY | ≤ 0.25
103 | RGHE | ≤ 0.25
104 | SVKS | ≤ 0.25

Row | Variant | enrichment ratio
105 | GPFM | ≤ 0.25
106 | KTFC | ≤ 0.25
107 | WEWH | ≤ 0.25
108 | DYWC | ≤ 0.25
109 | TYCK | ≤ 0.25
110 | AVTI | 10.4
111 | DQMD | ≤ 0.25
112 | ERLF | ≤ 0.25
113 | KFPP | ≤ 0.25
114 | QKWG | ≤ 0.25
115 | KMHT | ≤ 0.25
116 | VYTD | ≤ 0.25
117 | HQYR | ≤ 0.25
118 | SRWM | ≤ 0.25
119 | IWYS | ≤ 0.25
120 | TPTP | ≤ 0.25
121 | YTPA | ≤ 0.25
122 | VAAT | ≤ 0.25
123 | AHYD | ≤ 0.25
124 | NAAA | ≤ 0.25
125 | INAK | ≤ 0.25
126 | LFNT | ≤ 0.25
127 | DMWY | ≤ 0.25
128 | RRSE | ≤ 0.25
129 | DGWF | ≤ 0.25
130 | DMAH | ≤ 0.25

Row | Variant | enrichment ratio
131 | ISNT | ≤ 0.25
132 | NLHE | ≤ 0.25
133 | THEP | ≤ 0.25
134 | LYWQ | ≤ 0.25
135 | PIHL | ≤ 0.25
136 | KVVN | ≤ 0.25
137 | GQNI | ≤ 0.25
138 | DANQ | ≤ 0.25
139 | RMYM | ≤ 0.25
140 | PGLH | ≤ 0.25
141 | IWFF | ≤ 0.25
142 | DVWI | ≤ 0.25
143 | GWRR | ≤ 0.25
144 | RGWW | ≤ 0.25
145 | RKLF | ≤ 0.25
146 | LRMG | ≤ 0.25
147 | LPDM | ≤ 0.25
148 | SRGN | ≤ 0.25
149 | DDVG | ≤ 0.25
150 | IQGK | ≤ 0.25
151 | EMCQ | ≤ 0.25
152 | WHWT | ≤ 0.25
153 | QQEC | ≤ 0.25
